Screen size: about 310,000 compounds; about 14,000 (4.5%) showed an effect of 50% or more. Effects have a minus sign here. Some of the results follow.
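Further: peak tail current of the secondary pulse compared with the same well before compound.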

For the assay, the target named is human ether-à-go-go-related gene (hERG) potassium channel (human, UniProt Q12809). The experiment in a line: primary screen, population patch clamp on CHO cells stably expressing hERG.
Sequence of human ether-à-go-go-related gene (hERG) potassium channel (Q12809 whole entry, looked up): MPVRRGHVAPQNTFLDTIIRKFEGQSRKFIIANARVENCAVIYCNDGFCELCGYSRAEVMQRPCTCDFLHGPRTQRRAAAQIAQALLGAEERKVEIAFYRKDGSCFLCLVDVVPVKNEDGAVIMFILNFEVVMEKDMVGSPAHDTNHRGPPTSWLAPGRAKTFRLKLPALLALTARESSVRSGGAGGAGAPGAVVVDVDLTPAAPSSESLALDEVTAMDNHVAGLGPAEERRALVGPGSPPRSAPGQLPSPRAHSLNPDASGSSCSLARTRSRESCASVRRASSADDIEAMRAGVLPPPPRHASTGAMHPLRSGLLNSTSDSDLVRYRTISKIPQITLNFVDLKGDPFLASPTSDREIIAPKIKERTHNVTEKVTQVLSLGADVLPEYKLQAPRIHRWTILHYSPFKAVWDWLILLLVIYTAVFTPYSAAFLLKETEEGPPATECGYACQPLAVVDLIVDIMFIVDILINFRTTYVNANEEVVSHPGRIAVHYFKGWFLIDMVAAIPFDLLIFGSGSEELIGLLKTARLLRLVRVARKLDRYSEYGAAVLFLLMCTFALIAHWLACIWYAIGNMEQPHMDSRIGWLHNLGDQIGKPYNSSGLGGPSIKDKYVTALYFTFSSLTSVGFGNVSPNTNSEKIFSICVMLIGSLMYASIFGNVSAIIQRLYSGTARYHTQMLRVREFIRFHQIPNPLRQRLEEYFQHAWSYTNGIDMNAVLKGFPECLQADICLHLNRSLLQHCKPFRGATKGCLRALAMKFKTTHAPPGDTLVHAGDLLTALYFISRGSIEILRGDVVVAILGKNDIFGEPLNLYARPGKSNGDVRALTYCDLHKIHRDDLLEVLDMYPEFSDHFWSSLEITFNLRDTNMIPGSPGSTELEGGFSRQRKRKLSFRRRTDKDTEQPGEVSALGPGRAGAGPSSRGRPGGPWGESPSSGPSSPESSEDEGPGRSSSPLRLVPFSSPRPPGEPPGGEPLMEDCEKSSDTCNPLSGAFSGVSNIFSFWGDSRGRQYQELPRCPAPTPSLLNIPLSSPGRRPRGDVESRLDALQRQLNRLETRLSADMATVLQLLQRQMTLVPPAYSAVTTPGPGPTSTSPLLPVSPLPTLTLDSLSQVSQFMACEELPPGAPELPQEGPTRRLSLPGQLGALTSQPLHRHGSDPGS
Regarding `CC(N)c1ccc(Cl)cc1Cl` (stereo not shown), the “hERG current change (%, negative = inhibition) at 10uM” value was 23.2%. To `C=C1C[C@]2(O)[C@@]3(C)CCC(=O)C(C)(C)C3=C(O)C(=O)[C@@]2(C)[C@@H]2C(=O)O[C@@](C)(C(=O)OC)C(=O)[C@@]12C` belongs -0.999%; to `COc1ccc(N2CCN(c3ccc(Cl)nn3)CC2)cc1`, -19.2%. To `O=C(N/N=C/c1ccc(-c2ccc([N+](=O)[O-])cc2)o1)[C@H]1C[C@@H]1c1ccccc1` belongs 7.07%. Regarding `CC(=O)Nc1cc(-c2nn3c(C)nnc3s2)ccc1C`, the “hERG current change (%, negative = inhibition) at 10uM” value worked out at 15.7%. To `COC(=O)Cc1c(O)ccn(Cc2ccc(OC)c(OC)c2)c1=O` belongs 0.213%; to `COc1ccc(CCNC2CCN(C)CC2)cc1OC`, 3.52%; to `Cc1ccc(NC(=O)CCC(=O)N2CCC(C)CC2)c([N+](=O)[O-])c1`, -18.3%. To `CN(C)S(=O)(=O)c1cccc(NC(=O)COC(=O)/C=C/c2ccc3c(c2)OCO3)c1` belongs 16.2%; to `COc1ccc(OCC(=O)Nc2ccc(N3CCOCC3)cc2)cc1`, -5.35%; to `Cc1ccc2c(CC(=O)NC3CCCc4ccccc43)coc2c1` (stereo not shown), 10.7%. Turning to `CCOc1ccc(/C=N/n2c(C)nc3ccccc3c2=O)cc1`, the “hERG current change (%, negative = inhibition) at 10uM” value came out at 22.3%. For `Cc1cc(O)c(C(C)C)cc1NC(=O)c1cccc(Cl)c1`, the “hERG current change (%, negative = inhibition) at 10uM” value is -13.4%. To `Cc1cc(C(=O)Nn2cnc3ccccc3c2=O)ccc1[N+](=O)[O-]` belongs 22.9%. To `O=C(CCN1CCCCO1)N1CCCC(Nc2ccc(F)cc2)C1` (stereo not shown) belongs 12.7%.

With `COC(=O)C(C)(C)ONC(=O)Nc1ccc(Br)cc1`, the “hERG current change (%, negative = inhibition) at 10uM” value is reported as 11.9%. To `N=C1C(c2nc3ccccc3[nH]2)=C(O)CN1c1ccccc1` belongs 7.61%; to `O=C(Nc1ccc(F)cc1)c1ccc(=O)[nH]n1`, 19.8%; to `CCN1CCCC1CN(Cc1cc2c(C)cc(C)cc2[nH]c1=O)C(=O)NC1CCCCC1` (stereo not shown), -76%.

With `Fc1ccc(CNc2ncnc3c2cnn3-c2ccccc2)cc1`, the “hERG current change (%, negative = inhibition) at 10uM” value is on record as -28.8%. In the case of `CCN(CC)CCCN(Cc1cc2cc3c(cc2[nH]c1=O)OCO3)C(=S)Nc1ccccc1OC`, the “hERG current change (%, negative = inhibition) at 10uM” value is recorded as -10.5%. In the case of `Cc1ccc(C2CC(=O)Nc3c2ccc2ccccc32)cc1[N+](=O)[O-]` (stereo not shown), the “hERG current change (%, negative = inhibition) at 10uM” value worked out at 6.65%. For the compound `Cc1ccc(NC(=O)/C(=C/c2cccs2)NC(=O)c2ccco2)cc1`, the “hERG current change (%, negative = inhibition) at 10uM” value was 6.71%. As for `Cn1c(=O)c2c(ncn2CC(O)CNc2ccc(Cl)cc2)n(C)c1=O` (stereo not shown), the “hERG current change (%, negative = inhibition) at 10uM” value was -15.9%. To `CC1CCc2onc(C(=O)O)c2C1` (stereo not shown) belongs 16.4%; to `COc1c(N2CCN(C(=S)Nc3ccc(F)cc3)C(C)C2)c(F)cc2c(=O)c(C(=O)O)cn(C3CC3)c12` (stereo not shown), -3.93%. To `CN1CCN(C(=O)c2ccc3c(c2)NC(=O)C(N2CCOCC2)S3)CC1` (stereo not shown) belongs 3.85%. For `Cc1onc(-c2ccccc2Cl)c1C(=O)NCc1cccnc1`, the “hERG current change (%, negative = inhibition) at 10uM” value is listed as 8.17%. Take `Clc1ccc(-c2nc(NCCCN3CCOCC3)c3ccccc3n2)cc1`: the “hERG current change (%, negative = inhibition) at 10uM” value is on record as -18.9%. To `Cc1cc(NC(=O)c2c(-c3c(F)cccc3Cl)noc2C)no1` belongs -8.5%; to `O=C(Nc1ccc2c(c1)CCC2)c1cc(S(=O)(=O)Nc2ccc(F)cc2)c(Cl)cc1Cl`, 1.9%; to `O=C1CSC(=Nc2ccc(Cl)cc2)N1Cc1ccco1`, -9.14%. To `COc1ccc(NC(=O)COC(=O)c2cc([N+](=O)[O-])ccc2N2CCOCC2)cc1` belongs -29.3%; to `Cc1ccc(NC(=O)c2cc(C)n(-c3ccccc3)c2C)cc1`, -9.93%; to `CC12CC(NC(=O)N1c1cccc(C(=O)N3CCCCC3)c1)c1ccccc1O2` (stereo not shown), 15.2%. As to `CC1(C)CC2CC(C)(CN2S(=O)(=O)c2ccc(C(=O)Nc3ccc(Cl)c(S(=O)(=O)N4CCOCC4)c3)cc2)C1` (stereo not shown), the “hERG current change (%, negative = inhibition) at 10uM” value is given as -6.26%. In the case of `Cc1ccc(-c2nn3c(C)nnc3s2)cc1NC(=O)c1ccco1`, the “hERG current change (%, negative = inhibition) at 10uM” value is -11.7%. To `COc1ccc(S(=O)(=O)N(CC(N)=O)C2CCCCC2)cc1Cl` belongs 4.39%; to `Cc1cc(C)c(C)c(S(=O)(=O)NCc2ccc(C(=O)N3CCCCC3)cc2)c1C`, -1.77%. To `CN(c1nc2ccccc2n2c(-c3ccco3)nnc12)S(=O)(=O)c1ccccc1` belongs -10.8%. To `N/C(=N\OC(=O)CCc1ccccc1)c1cccc(Br)c1` belongs 1.33%; to `Cn1c(=O)oc2cc(S(=O)(=O)NCCC(=O)N3CCc4ccccc43)ccc21`, 1.24%. As to `CCCCNS(=O)(=O)c1ccc2nc(-c3cccnc3)cc(C(=O)NCCCOC)c2c1`, the “hERG current change (%, negative = inhibition) at 10uM” value is given as -0.263%. Take `CC1CN(C2CCCCC2)c2nc3c(c(=O)[nH]c(=O)n3C)n2C1` (stereo not shown): the “hERG current change (%, negative = inhibition) at 10uM” value is reported as -4.42%. To `CNC(=S)NNC(=O)CCn1nc(C)c(Br)c1C` belongs 15.8%; to `O=C(Nc1cccnc1)c1ccc(-c2ccccc2)cc1`, 2.38%. `COc1ccc(CN(Cc2cccnc2)S(=O)(=O)c2ccc(-n3cnnn3)c(OC)c2)cc1`: the “hERG current change (%, negative = inhibition) at 10uM” value was -46.7%. To `O=C(NCc1ccco1)C1(c2ccccc2)CCCC1` belongs 12%; to `Cc1ccc(N(C)S(=O)(=O)c2cccc(C(=O)OCC(=O)N3CCCC(C)C3)c2)cc1` (stereo not shown), -36.8%. To `CCOC(=O)c1cnc2ccc(C)cc2c1NCCN1CCOCC1.Cl` belongs -65.7%; to `O=C(Nc1cccc(OCC(=O)N2CCOCC2)c1)c1ccc(C(F)(F)F)cc1`, -7.91%. As for `CCOC(=O)c1cc2sc(C)cc2n1CCCN1C(=O)c2ccccc2C1=O`, the “hERG current change (%, negative = inhibition) at 10uM” value came out at 6.09%. To `CC1C/C(=C/c2cccn2C)C(=O)/C(=C/c2cccn2C)C1` (stereo not shown) belongs 9.5%. With `CCC1CN(C(=O)NCc2ccccc2)c2cc(C)ccc2O1` (stereo not shown), the “hERG current change (%, negative = inhibition) at 10uM” value worked out at 1.95%.

Take `O=C(NCCc1ccc2c(c1)OCCO2)c1ccc([N+](=O)[O-])cc1Cl`: the “hERG current change (%, negative = inhibition) at 10uM” value is recorded as -7.02%.

For the compound `CCc1sc(C(=O)Nc2ccc3c(c2)OCCO3)cc1Br`, the “hERG current change (%, negative = inhibition) at 10uM” value is recorded as 15.2%. To `COc1ccc(CCNC(=O)c2cccs2)cc1` belongs 10.9%. To `COc1ccc(OCc2cc(C(=O)NCC(C)Oc3cccnc3)no2)c(Cl)c1` (stereo not shown) belongs -52.6%; to `O=C(COC(=O)CCS(=O)(=O)c1ccc(Cl)cc1)Nc1ncc(Cl)cc1Cl`, -17.6%; to `Cc1ccccc1NC(=O)CN1CCC(NC(=O)Nc2ccccc2)CC1`, -35.9%. To `CC(=O)Nc1cn(C(C)=O)c(C)n1` belongs 2.27%; to `C=CCn1c(Cc2cccs2)nnc1SCC(=O)Nc1ccc(OC)cc1`, -30.5%; to `COCCn1c(C)cc(C2=NNC(=Nc3ccccc3)SC2)c1C`, -13.9%. In the case of `CC(O)(CS(=O)(=O)c1ccccc1)C(=O)Nc1cccc(C(F)(F)F)c1` (stereo not shown), the “hERG current change (%, negative = inhibition) at 10uM” value was -14.9%. To `Cc1csc(=O)n1CC(=O)OCC(=O)c1c(N)n(C)c(=O)n(C)c1=O` belongs 4.36%. `CCCCCCNS(=O)(=O)c1nc2nc(C)cc(C)n2n1`: the “hERG current change (%, negative = inhibition) at 10uM” value was -8.27%. To `Cc1ccc(-n2cnc3scc(-c4cccs4)c3c2=O)cc1` belongs 3.67%. To `CCC(=O)N1CCN(c2cc(N3CCCC3)c(F)cc2[N+](=O)[O-])CC1` belongs -10.4%; to `OCCN1CCN(C(=S)Nc2ccc(SC(F)F)cc2)CC1`, -18.4%.

Turning to `Cc1ccc2nsnc2c1S(=O)(=O)N1CCN(C)CC1`, the “hERG current change (%, negative = inhibition) at 10uM” value amounted to 3.83%. With `CC(C)c1ccccc1NC(=S)NC1CCN(Cc2ccccc2)CC1`, the “hERG current change (%, negative = inhibition) at 10uM” value is on record as -47.8%. To `O=S(=O)(c1cccc(Br)c1)N1CCN(CCc2ccccc2)CC1` belongs 17.4%; to `Cc1cccc(-c2nc(CS(=O)CC(=O)NCCc3ccccc3)c(C)o2)c1` (stereo not shown), -7.14%.

Regarding `CCOC(=O)C1=C(C)OC(N)=C(C#N)C12C(=O)Nc1ccc(C)cc12` (stereo not shown), the “hERG current change (%, negative = inhibition) at 10uM” value was 5.89%. To `COc1cc(/C=C/C(=O)OCC(=O)NCC2CCCCC2)ccc1O` belongs -10.6%.

Consider `CCCCOc1ccc(C(=O)Nc2ccc(SC(F)F)cc2)cc1OC`, for which the “hERG current change (%, negative = inhibition) at 10uM” value turned out to be 2.23%.

For the compound `CCn1c(N2CCN(CC(=O)c3c(C)n(C)c4ccccc34)CC2)nc2c1c(=O)[nH]c(=O)n2C`, the “hERG current change (%, negative = inhibition) at 10uM” value is 5.34%. As for `CC(C)(CNC(=O)c1ccc(-c2cccc(C(F)(F)F)c2)o1)N1CCOCC1`, the “hERG current change (%, negative = inhibition) at 10uM” value was -76.3%. As to `Cc1nc(-c2ccc(Cl)cc2)sc1C1(C)CC(c2ccc(C#N)cc2)=NO1` (stereo not shown), the “hERG current change (%, negative = inhibition) at 10uM” value was -29.2%. On to `Cc1ccccc1NC(=O)CN(C)S(=O)(=O)c1ccc(-c2ccc(=O)[nH]n2)s1`, for which the “hERG current change (%, negative = inhibition) at 10uM” value is -78.6%. To `C[C@]12C=CC(=O)C=C1CC[C@@H]1C2CC[C@]2(C)OC(=O)CCC12` (stereo partly shown) belongs 0.661%; to `CCOC(=O)c1c(CC(C)C)csc1/N=C/C1C(=O)CC(C)(C)CC1=O`, 14.3%; to `COc1ccc(-c2ccc(=O)n(CC(=O)NC3CCc4ccccc43)n2)cc1OC` (stereo not shown), -15.9%. To `CC(=O)NC(Cc1ccc(N(CCCl)CCCl)cc1)C(=O)O` (stereo not shown) belongs -0.713%.

For `CC1CN(C(C)C)C(C)CC1OC(=O)c1ccccc1` (stereo not shown), the “hERG current change (%, negative = inhibition) at 10uM” value came to 15.7%. To `O=C(CN1CCN(C(=O)c2ccco2)CC1)Nc1ccc(Cl)c(C(F)(F)F)c1` belongs -67.1%; to `Cc1nc(-c2ccc(S(=O)(=O)N3CCCCCC3)cc2)cs1`, 11.7%; to `O=C(O)c1cccc(CN2C(=O)SC(Nc3cccc4ccccc34)C2=O)c1` (stereo not shown), -3.22%.

These data come from publication PMC4336329 (PLoS ONE, 2015).
